This note sets out measurements from article PMC4336329 (PLoS ONE, 2015).

In all, about 310,000 compounds went through this assay and about 2,200 (0.71%) showed an effect of 50% or more. The effect is printed as a negative number. This is one part of the list. Where a SMILES comes first, the peptide text is derived from it. The star is where a group is joined. Cbz = O=C(OCc1ccccc1)*

In the assay the target is human ether-à-go-go-related gene (hERG) potassium channel (human, UniProt Q12809). Kind of assay: primary screen, population patch clamp on CHO cells stably expressing hERG.
Sequence of human ether-à-go-go-related gene (hERG) potassium channel (Q12809 whole entry, looked up): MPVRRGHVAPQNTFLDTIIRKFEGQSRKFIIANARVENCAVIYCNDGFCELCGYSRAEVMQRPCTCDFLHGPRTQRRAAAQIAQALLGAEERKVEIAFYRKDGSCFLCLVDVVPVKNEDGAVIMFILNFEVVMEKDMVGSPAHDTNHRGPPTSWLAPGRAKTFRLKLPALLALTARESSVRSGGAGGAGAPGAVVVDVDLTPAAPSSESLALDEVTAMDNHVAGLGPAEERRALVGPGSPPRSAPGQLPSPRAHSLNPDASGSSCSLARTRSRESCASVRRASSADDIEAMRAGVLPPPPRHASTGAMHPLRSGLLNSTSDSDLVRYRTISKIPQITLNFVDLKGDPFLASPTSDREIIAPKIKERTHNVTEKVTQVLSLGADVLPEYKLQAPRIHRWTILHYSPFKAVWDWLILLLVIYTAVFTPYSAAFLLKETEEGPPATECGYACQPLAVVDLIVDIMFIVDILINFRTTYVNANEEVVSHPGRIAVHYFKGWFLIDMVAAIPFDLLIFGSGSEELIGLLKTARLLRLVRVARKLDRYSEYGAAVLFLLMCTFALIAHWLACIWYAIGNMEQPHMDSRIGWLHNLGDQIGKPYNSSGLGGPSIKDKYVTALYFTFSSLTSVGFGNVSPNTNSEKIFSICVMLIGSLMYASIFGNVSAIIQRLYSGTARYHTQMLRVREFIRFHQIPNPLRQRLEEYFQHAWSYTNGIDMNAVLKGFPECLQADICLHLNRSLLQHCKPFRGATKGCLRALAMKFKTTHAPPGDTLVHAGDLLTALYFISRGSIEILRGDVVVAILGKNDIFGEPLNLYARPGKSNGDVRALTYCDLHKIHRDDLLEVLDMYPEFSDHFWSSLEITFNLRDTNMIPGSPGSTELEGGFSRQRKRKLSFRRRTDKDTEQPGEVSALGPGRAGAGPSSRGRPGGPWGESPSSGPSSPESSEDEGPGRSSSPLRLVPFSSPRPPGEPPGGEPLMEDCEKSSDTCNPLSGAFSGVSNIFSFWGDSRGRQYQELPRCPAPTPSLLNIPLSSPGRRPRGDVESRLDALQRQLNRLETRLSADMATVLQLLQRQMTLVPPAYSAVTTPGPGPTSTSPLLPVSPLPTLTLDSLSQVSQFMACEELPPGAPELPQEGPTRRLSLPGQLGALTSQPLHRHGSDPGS
On to `COC(=O)c1ccc(/C=N/NC(=O)c2cccc(F)c2)cc1`, for which the “hERG current change (%, negative = inhibition) at 1uM” value came out at 12.2%.
Take `COc1ccc(NC(=O)CSc2nc3cccnc3n2C)cc1`: the “hERG current change (%, negative = inhibition) at 1uM” value was 13.9%.
With `Oc1ccc(-c2nc(-c3ccc(F)cc3)c(-c3ccncc3)[nH]2)cc1` the figure was 1.23%.
The same measure for `Cc1ccc(OCC(=O)Nc2ccc(F)cc2)c([N+](=O)[O-])n1`: 8.65%; for `O=S(Cc1ccc(Br)cc1)Cc1nnc(SCc2ccc(Br)cc2)n1-c1ccccc1` (centres unmarked): 8.54%.
The same measure for `Cc1cc(N2CCN(C)CC2)ccc1NC(=O)c1c2c(nc3ccccc13)CCN(Cc1ccccc1)C2`: 9.88%.
On to `CC1(C)Cc2c(c(N3CCOCC3)nc3sc4c(NCc5ccccc5)nnnc4c23)CS1`, for which the “hERG current change (%, negative = inhibition) at 1uM” value was -5.68%.
As to `CCOC(=O)c1c(C)[nH]c(C(=O)NCCN2CCOCC2)c1C`, the “hERG current change (%, negative = inhibition) at 1uM” value is 14.1%.
Consider `O=P(c1ccccc1)(c1ccccc1)C(O)c1ccncc1` (centres unmarked), for which the “hERG current change (%, negative = inhibition) at 1uM” value amounted to 18.7%.
The same measure for `CN1/C(=C\C(=O)Nc2cccc(Cl)c2)C(C)(C)c2ccccc21`: 3.51%; for `O=C(NCc1ccco1)C1CCCN(S(=O)(=O)c2cccc3nonc23)C1` (centres unmarked): 4.31%.
As to `CC1CC(C)CN(C(=O)CNS(=O)(=O)c2cccs2)C1` (centres unmarked), the “hERG current change (%, negative = inhibition) at 1uM” value is 12.6%.
The same measure for `CCCN1CCN(C(=S)Nc2sc(CC)cc2C(=O)OC)CC1`: 11.7%; for `COc1ccc(-c2cc(C(=O)Nc3c(C)n(C)n(-c4ccccc4)c3=O)no2)cc1`: 4.76%; for `COc1ccc(OC)c(NC(=O)CN2C(=O)CSc3ccc(S(=O)(=O)N4CCCC4)cc32)c1`: 11.2%.
On to `COc1ccc(-c2c(C#N)c(SCC(N)=O)nc3c2CCCC3)cc1`, for which the “hERG current change (%, negative = inhibition) at 1uM” value is on record as 4.57%.
The same measure for `NS(=O)(=O)c1cccc(NC(=O)CCN2C(=O)C3CCCCC3C2=O)c1` (centres unmarked): 17.8%; for `COc1ccccc1CCNC(=O)c1ccc(C)o1`: -13.9%.
Regarding `COc1ccc(O)c(C=NCC(C)N=Cc2cc(OC)ccc2O)c1` (centres unmarked), the “hERG current change (%, negative = inhibition) at 1uM” value stood at 10.1%.
With `CC(=O)Oc1ccc(/C=C(\NC(=O)c2ccco2)C(=O)Nc2ccc(C(C)=O)cc2)cc1` the figure was 7.47%.
The same measure for `Cc1ccc(-n2nc3c(c2NC(=O)CC(C)C)CS(=O)(=O)C3)c(C)c1`: 25.6%; for `COc1cccc(NC(=O)C2CCCN2C(=O)NC2CCCCC2)c1` (centres unmarked): 14.9%.
The same measure for `CC(NC(=O)CNC(=O)C(Cc1ccccc1)NC(=O)OCc1ccccc1)C(N)=O` (stereo not drawn) (Cbz-Phe-Gly-Ala-NH2; configuration not given here): 19.7%.
Take `CC(C)c1cc(-c2cc(C(=O)Nc3ccccc3)on2)nc(NC2CCCC2)n1`: the “hERG current change (%, negative = inhibition) at 1uM” value is given as -0.452%.
As to `CCCc1oc(C(=O)O)cc1CN.Cl`, the “hERG current change (%, negative = inhibition) at 1uM” value stood at 9.54%.
The same measure for `CC(=O)Nc1ccc(OC(=O)c2ccco2)cc1`: 9.5%.
With `O=C1NC(=O)N(Cc2ccccc2)C(=O)/C1=C/N1CCCc2ccccc21` the figure was 16.5%; with `CC(C)Oc1ccc(OCCn2c(=S)[nH]c3c(N)ncnc32)cc1`, 10.7%; with `Cc1nc(C(=O)O)nn1-c1ccc([N+](=O)[O-])cc1`, 13%.
As for `CC(C)[C@H](NC(=O)c1c(F)cccc1F)C(=O)OCC(=O)NC(=O)NC1CCCC1`, the “hERG current change (%, negative = inhibition) at 1uM” value is 4.69%.
With `CCN1CCc2c(sc(NC(=O)Cc3ccccc3)c2C(=O)OC)C1.Cl` the figure was -6.48%; with `Cn1c(=O)c2c(nc(Br)n2CC(=O)C23CC4CC(CC(C4)C2)C3)n(C)c1=O`, -1.49%; with `Cc1cccc(Cc2c(C)[nH]c(=O)c(C#N)c2C)c1`, 4.05%.
With `Cc1cccc(C2NC(c3cccc(C)c3)C(C)C(=O)C2C)c1` (centres unmarked) the figure was 15.9%.
On to `CC1(C)CC2(C)Nc3ccccc3N2C(=S)N1` (centres unmarked), for which the “hERG current change (%, negative = inhibition) at 1uM” value was determined as 17.4%.
The same measure for `CCOC(=O)C1=C(C)NC(=O)C(C(N)=O)C12CCCCC2` (centres unmarked): 16.7%; for `COc1ccc(Cc2nc3ccc(S(=O)(=O)N4CCOCC4)cc3[nH]2)cc1OC`: 13.9%.
Regarding `Cc1cccc(NC(=S)N2CCN(S(=O)(=O)c3cccc(F)c3)CC2)c1`, the “hERG current change (%, negative = inhibition) at 1uM” value stood at 9.44%.
The same measure for `CCCNC(=O)c1ccccc1C(=O)NCCC`: 1.81%; for `Cc1cc(C)cc(NC(=O)CSc2nc(=O)n3cc(C)ccc3n2)c1`: -0.827%; for `COc1ccc(C2NCCc3cc(OC)c(OC)cc32)cc1OC` (centres unmarked): 3.45%.
`Cc1cc2c(NCc3ccccc3)ncnc2s1.Cl`: the “hERG current change (%, negative = inhibition) at 1uM” value was found to be 9.26%.
The same measure for `CCn1c(=O)c2cc(C(=O)N3CCOCC3)sc2c2ccccc21`: 9.17%; for `COc1cc2c(cc1OC)C(C)N(C(=O)/C=C/c1cc(OC)c(OC)c(OC)c1)CC2` (centres unmarked): 11%.
